Reference: PubChem BioAssay AID463173 (ICCB-Longwood Screening Facility, Harvard Medical School, 2010)
Out of some 52,000 compounds screened, about 1,700 (3.3%) were called active. Cut-off read from the data, not from the text of the source: active = survival mostly below about 52% (no sharp cut-off); inactive = mostly above about 56%. This is one part of the list.

The compounds below were run on Wild type (assay: S. aureus survival, RN4220 and DeltatarO strains – OD600, teichoic acid synthesis inhibitors, primary screen (AID 463173)). Settings: S. aureus RN4220 wild type/DeltatarO growth, OD600, 18 h, stronger effect = lower value, screened at 18.75 µg/mL (by protocol).
In the case of `CSc1ccc(CCNC(=O)C2CCCN(S(=O)(=O)N(C)c3ccc(F)cc3)C2)cc1` (stereo not drawn), the survival was inactive: 84%. For `CCOC(=O)C(Cc1ccccc1)NC(=O)Cn1nnc(-c2ccc(C)cc2)n1` (stereo not drawn), the survival was inactive: 70%. With `CN(C)S(=O)(=O)N(CC(=O)NCCSCc1ccc(Cl)cc1Cl)c1ccccc1` the survival was inactive: 56%. In the case of `COc1ccc(NC(=O)CN2C(=O)C(c3ccccc3)=NC23CCC(C)CC3)cc1Cl` (stereo not drawn), the survival was inactive: 87%. In the case of `COc1ccc2[nH]c(=O)cc(C(=O)O)c2c1`, the survival was inactive: 94%. `CCOC(=O)C(CC)n1c(Br)nc2c1c(=O)[nH]c(=O)n2C` (stereo not drawn) was tested, and the survival was inactive: 120%. In the case of `O=C1Cc2cc(S(=O)(=O)Nc3cccc(C(F)(F)F)c3)cc3c2N1CCC3`, the survival was inactive: 75%. `CC(C)c1ccc(NC(=O)c2cc(S(=O)(=O)NCCc3ccccc3)ccc2F)cc1` was tested, and the survival was inactive: 45%. `COc1ccc(-n2ccnc(NCCc3ccc(S(N)(=O)=O)cc3)c2=O)cc1Cl` was tested, and the survival was inactive: 69%. `Cc1cccn2c(=O)cc(COc3cccc(NC(=O)Nc4cccc(Cl)c4)c3)nc12` was tested, and the survival was inactive: 134%. In the case of `C[C@H](NC(=O)OC(C)(C)C)c1nnc(SCc2ccc(Cl)cc2Cl)o1`, the survival was inactive: 51%. For `COc1ccc(C(C)C)cc1S(=O)(=O)NCCc1c(C)[nH]c2c(Cl)cccc12`, the survival was inactive: 80%. For `Cc1nn(CC(=O)N2CCN(c3ccccc3F)CC2)c(=O)c2cccn12`, the survival was inactive: 109%. In the case of `CCN(CC)c1ccc2nc3c(=O)n(C)c(=O)n(C)c3nc2c1`, the survival was inactive: 79%. In the case of `COc1ccc(-c2nc3cc(N=Cc4ccccc4O)ccc3o2)cc1`, the survival was inactive: 111%. For `CC(C)c1ccc(NC(=O)[C@H]2O[C@@H]3OC(C)(C)O[C@@H]3[C@H]3OC(C)(C)O[C@H]32)cc1`, the survival was inactive: 100%. In the case of `Cc1cc(OC(C)C(=O)N(Cc2ccco2)Cc2ccco2)cc(C)c1Cl` (stereo not drawn), the survival was inactive: 67%. For `CCc1cc2c(=O)c(-c3nc(C)cs3)c(CCC(=O)O)oc2cc1O`, the survival was inactive: 102%. For `O=C(CSc1oc(-c2ccc(F)cc2)nc1S(=O)(=O)c1ccccc1)c1ccc(Cl)cc1`, the survival was inactive: 67%. `CC(C)c1nn2c(=O)cc(COC(=O)c3cccc(NC(=O)CCc4ccccc4)c3)nc2s1` was tested, and the survival was inactive: 74%. In the case of `CCN(Cc1ccccc1)C(=O)Cn1c(=O)cc(C)c2c(C)nn(-c3cccc(F)c3)c21`, the survival was inactive: 71%. `CCn1nc(C)c(CCN(C)C(=O)Nc2cc(Cl)c(OC)cc2OC)c1C` was tested, and the survival was inactive: 100%. In the case of `O=C(C(c1ccccc1)c1ccccc1)N1CCN(c2ccccn2)CC1`, the survival was inactive: 98%. `CC(C)c1ccc(NC(=O)C2CCC(CNS(=O)(=O)c3ccc4c(c3)CCCC(=O)N4)CC2)cc1` (stereo not drawn) was tested, and the survival was inactive: 75%. In the case of `COc1ccc(CNC(=O)CCn2c(=O)c3cccn3c3ccc(F)cc32)cc1OC`, the survival was inactive: 105%. For `CCN1C(=O)c2ccccc2S(=O)(=O)c2ccc(C(=O)NCc3ccc(C)cc3)cc21`, the survival was inactive: 86%. `CCc1ccc2occ(CC(=O)Nc3nnc(SC)s3)c2c1` was tested, and the survival was inactive: 85%. For `CCOc1ccc(-c2nnc(SCC(=O)NC3CCCCC3)nc2-c2ccc(OCC)c(OC)c2)cc1OC`, the survival was inactive: 77%. For `Cn1c(=O)c2c(-c3ccccc3)n(-c3cccc(C#N)c3)cc2n(C)c1=O`, the survival was inactive: 86%. With `CCOC(=O)c1[nH]c(C)c(CCC(=O)N2CCN(c3ccc(Cl)cc3)CC2)c1C` the survival was inactive: 71%. With `CCS(=O)(=O)c1nc(S(=O)(=O)c2ccc(Cl)cc2)c(NCc2ccc(Cl)cc2)s1` the survival was inactive: 80%. `COc1ccc(-c2ccc(=O)n(CC(=O)Nc3ccc(Br)cc3F)n2)cc1` was tested, and the survival was inactive: 56%. For `COc1ccc(Cc2c(C)nn(-c3nc(C)c(C(=O)Nc4cccc(C(C)=O)c4)s3)c2C)cc1`, the survival was inactive: 88%. With `CCc1ccc2nc(N(Cc3cccnc3)C(=O)Cc3ccccc3)sc2c1` the survival was inactive: 71%. `CC1(C)NC(=O)N(CC(O)CN2C(=O)NC(C)(C)C2=O)C1=O` was tested, and the survival was inactive: 117%. `CCC(C(=O)NCc1ccccc1Cl)n1c(=O)c2cccn2c2ccccc21` (stereo not drawn) was tested, and the survival was inactive: 76%. In the case of `Cn1c(CNc2cccc(C(F)(F)F)c2)n[nH]c1=S`, the survival was inactive: 111%. With `CCc1ccccc1N1C(=O)N(Cc2cc(=O)n3ccccc3n2)c2ccccc2S1(=O)=O` the survival was inactive: 82%. `O=C(NCc1ccccc1)c1c2c(nc3ccccc13)C(=O)N(C1CCCCC1)C2` was tested, and the survival was inactive: 88%. With `COC(=O)c1cc(OC)c(OC)cc1NC(=O)c1ccc2c(c1)CCN2S(C)(=O)=O` the survival was inactive: 82%. In the case of `Cc1ccc2c(c1)N(C(=O)c1ccc(F)cc1)C(C)(C)CC2(C)c1ccccc1` (stereo not drawn), the survival was inactive: 43%. In the case of `CCOC(=O)N1CCc2c(sc3c2c(=O)n(CCc2ccccc2)c(=O)n3CC(=O)Nc2ccccc2C)C1`, the survival was inactive: 85%. For `CCCSc1nnc(NC(=O)c2cc(=O)c3ccccc3o2)s1`, the survival was inactive: 74%. `COCCNC(=O)Cn1cc(/C=C2\C(=O)NC(=O)N(C3CCCCC3)C2=O)c2ccccc21` was tested, and the survival was inactive: 104%. `COc1ccc(S(=O)(=O)N(CCc2ccccc2)CC(=O)Nc2cc(Cl)ccc2C)cc1` was tested, and the survival was inactive: 72%. In the case of `COC(=O)c1cc2sccc2n1Cc1c(C)cc(C)cc1C`, the survival was inactive: 42%. For `COc1ccc(NC(=O)C2CCCN(S(=O)(=O)c3ccc4[nH]c(=O)ccc4c3)C2)cc1Cl` (stereo not drawn), the survival was inactive: 100%. For `NC(=O)c1c(NC(=O)CS(=O)(=O)c2ccc(Cl)cc2)sc2c1CCCC2`, the survival was inactive: 133%. With `O=C(c1cccc(Cl)c1)N(Cc1cccc(F)c1)C1CCS(=O)(=O)C1` (stereo not drawn) the survival was inactive: 87%. `CCCN1CCN(CCCNC(=O)c2cc3c(s2)-c2c(C)cccc2OC3)CC1` was tested, and the survival was inactive: 103%. With `CCOc1cccc(C(=O)N(Cc2ccc(C(C)C)cc2)C2CCS(=O)(=O)C2)c1` (stereo not drawn) the survival was inactive: 73%. In the case of `COc1ccccc1C(=O)Nc1ccccc1OCc1cc(=O)n2cc(C)sc2n1`, the survival was inactive: 85%. In the case of `Cc1ccc(-c2nn(CCC(=O)Nc3ccc(OC(F)(F)F)cc3)c(=O)c3ccccc23)cc1`, the survival was inactive: 108%. `Cc1ccc(NC(=O)C2CCN(C(=O)c3sc4nc[nH]c(=O)c4c3C)CC2)cc1F` was tested, and the survival was inactive: 80%. For `Cc1ccc(/C=C(\C#N)C(=O)NC2CCCCCC2)o1`, the survival was inactive: 109%. `CC(C)Oc1ccc(C(=O)NCCc2csc(-c3cccc(F)c3)n2)cc1` was tested, and the survival was inactive: 72%. With `Cc1ccccc1NC(=O)c1c(C)oc2ccc(O)c(CN(C)Cc3ccccc3)c12` the survival was inactive: 101%. `Cc1ccc(-c2noc(-c3ccccc3OCC(=O)Nc3ccccc3[N+](=O)[O-])n2)cc1` was tested, and the survival was inactive: 85%. `CCN1C(=O)C(Cc2nc3ccccc3c(=O)n2-c2cccc(C)c2)c2ccccc21` (stereo not drawn) was tested, and the survival was inactive: 53%. For `CCCC(=O)N1c2nc(-c3ccco3)nn2C2(CCCCC2)[C@@H]2CCCC[C@@H]21`, the survival was inactive: 89%. With `COc1cccc(NC(=O)Cn2c(=O)n(-c3ccc(C)cc3)c(=O)c3ccccc32)c1` the survival was inactive: 75%. In the case of `O=C(Nc1ncc(Cc2ccc(F)cc2)s1)c1ccc2c(c1)CC(c1ccccc1)OC2=O` (stereo not drawn), the survival was inactive: 90%. With `CCCCCn1c(CCCNC(=O)c2ccccc2)nc2ccccc21` the survival was inactive: 65%. With `CCC(Sc1nc2ccccc2s1)C(=O)Nc1cc(C)on1` (stereo not drawn) the survival was inactive: 104%. `Cc1nn(C)c2c1c(C(F)(F)F)cc(=O)n2CC(=O)Nc1ccc(F)cc1F` was tested, and the survival was inactive: 126%. `Cc1nnc(N2CCC(C(=O)NC3CCC(C)CC3)CC2)c2nn(-c3ccc(Cl)cc3)c(C)c12` (stereo not drawn) was tested, and the survival was inactive: 85%. For `Cc1ccccc1NC(=O)CSc1nccn1C`, the survival was inactive: 75%. With `Cc1cc(NCCN(C)C)c2ccccc2n1` the survival was inactive: 106%. `Cc1cccc(N(C)C(=O)Cn2cnc3nc4c(cc3c2=O)CCCC4)c1` was tested, and the survival was active: -1%. For `CC(C)c1ncc(C(O)c2cccc3ccccc23)n1C` (stereo not drawn), the survival was inactive: 107%. With `CC(CCc1ccccc1)NC(=O)CSc1n[nH]c(-c2ccccc2Cl)n1` (stereo not drawn) the survival was inactive: 53%. In the case of `Cc1cc(Cl)ccc1NC(=O)C1CCCN(c2nnc(C)c3c(C)n(-c4ccccc4)nc23)C1` (stereo not drawn), the survival was inactive: 70%. For `COc1cccc(CNC(=O)CCc2c(C)nn(-c3ccc(N4CCCC4)nn3)c2C)c1`, the survival was inactive: 78%. With `Cc1cc(C)c(NC(=O)C(C)n2nc(C)c3sc4ccccc4c3c2=O)c(C)c1` (stereo not drawn) the survival was inactive: 83%. For `COc1cccc(N2CC(NC(=O)c3cccs3)CC2=O)c1` (stereo not drawn), the survival was inactive: 88%. With `Cc1ccc(OC(C)C(=O)N2CCN(CCc3ccccn3)CC2)cc1C` (stereo not drawn) the survival was inactive: 83%. With `O=S(=O)(NCC(c1ccco1)S(=O)(=O)c1cccs1)c1ccccc1` (stereo not drawn) the survival was inactive: 78%. `COc1ccc(OC(=O)c2cn(-c3cccc(OC)c3)c(=O)c3ccccc23)cc1` was tested, and the survival was inactive: 74%. `Cc1cc(F)ccc1NC(=O)C1CCCN(C(=O)c2cnn(-c3ccccc3)c2-n2cccc2)C1` (stereo not drawn) was tested, and the survival was inactive: 85%. `Cc1cccc(OCC(=O)Nc2ccc3nc(SCc4ccccc4)sc3c2)c1` was tested, and the survival was inactive: 116%. With `Cc1nc2ccccc2n1CCc1nc2c3ccccc3nc(SCc3ccccc3F)n2n1` the survival was inactive: 66%. In the case of `CCCc1nnc(NC(=O)CSc2nnc3c4ccccc4n(CC)c3n2)s1`, the survival was inactive: 88%. For `CCc1ccc(CNC(=O)c2ccc(Cn3c(=O)c4cccn4c4cccnc43)cc2)cc1`, the survival was inactive: 87%. In the case of `CCc1cccc(C)c1NC(=O)c1cc(CN2CCCC2)on1`, the survival was inactive: 72%. For `CC(C)NC(=O)C1CCCN(S(=O)(=O)c2ccc3c(ccn3C)c2)C1` (stereo not drawn), the survival was inactive: 78%. `Cc1ccc(OCCCC(=O)Nc2sc3c(c2C(N)=O)CCC(C)C3)cc1` (stereo not drawn) was tested, and the survival was inactive: 148%. With `COCCn1c(C)cc(O)c(C(c2cccc(F)c2)N2CCN(c3ccccc3)CC2)c1=O` (stereo not drawn) the survival was inactive: 78%. With `CCOc1ccc(C(=O)N2CC(=O)Nc3ccc(F)cc3C2c2ccc(F)cc2)cc1` (stereo not drawn) the survival was inactive: 143%.
